# Test results: the supplement of paper PMC3334620
# Whole data set: some 33,000 sequences, median “E-score (-0.5 to 0.5)” near -0.021, cut for the highest 2% near 0.32. The list shows a part of the results.
# Molecular target: T1, Zap1 (UniProt P47043)
# T1 sequence: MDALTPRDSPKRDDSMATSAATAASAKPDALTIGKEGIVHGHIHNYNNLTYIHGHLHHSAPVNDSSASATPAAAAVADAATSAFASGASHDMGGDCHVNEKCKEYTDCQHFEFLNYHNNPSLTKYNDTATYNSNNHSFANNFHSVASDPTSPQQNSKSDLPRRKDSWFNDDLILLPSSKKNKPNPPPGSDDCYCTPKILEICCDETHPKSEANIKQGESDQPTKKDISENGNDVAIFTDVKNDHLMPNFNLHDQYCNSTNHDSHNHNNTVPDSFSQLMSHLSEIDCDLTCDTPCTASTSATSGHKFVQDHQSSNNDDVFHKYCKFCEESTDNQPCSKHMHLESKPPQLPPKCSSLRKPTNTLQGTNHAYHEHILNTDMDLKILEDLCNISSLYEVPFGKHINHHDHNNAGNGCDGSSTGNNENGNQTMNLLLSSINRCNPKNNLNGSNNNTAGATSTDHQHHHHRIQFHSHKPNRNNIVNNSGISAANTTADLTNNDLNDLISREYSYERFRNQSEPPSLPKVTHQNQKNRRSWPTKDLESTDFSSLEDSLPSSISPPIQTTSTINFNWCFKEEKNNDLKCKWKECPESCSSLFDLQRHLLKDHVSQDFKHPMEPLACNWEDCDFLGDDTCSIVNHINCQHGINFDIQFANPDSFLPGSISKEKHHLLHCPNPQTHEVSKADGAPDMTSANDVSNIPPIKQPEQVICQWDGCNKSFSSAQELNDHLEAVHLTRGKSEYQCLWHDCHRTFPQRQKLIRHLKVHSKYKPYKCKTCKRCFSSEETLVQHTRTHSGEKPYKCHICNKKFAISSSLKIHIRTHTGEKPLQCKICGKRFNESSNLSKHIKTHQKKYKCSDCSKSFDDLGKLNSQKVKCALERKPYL
# Assay: PBM E-score (8-mer binding enrichment) (E-score (-0.5 to 0.5)); higher = stronger / more preferred TF binding; most listed sequences are background and not binding sites
# Conditions: protein concentration: 200 nM; construct: GST-full length
# Method in brief: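 Yeast transcription factors, full-length or as DNA-binding domains, were expressed with a GST tag using PURExpress in vitro transcription/translation. At about 100-200 nM they were applied to universal all-10-mer Agilent arrays, double-stranded by primer extension on fresh or once-stripped slides. Fluorescent anti-GST detected bound protein, and masliner normalised the scans. E-scores for ungapped eight-base words, pooled with reverse complements, came from the Universal PBM Analysis Suite.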
row,Sequence,PBM E-score
1,ACTAGGGA,-0.072
2,AAGCTTAT,-0.106
3,AACAACAC,0.151
4,CCATTCGG,0.234
5,AAGAGACT,-0.107
6,AGATATCT,0.0317
7,CTCGGTAA,0.13
8,CATCAATA,0.0615
9,ACCGATAT,0.0908
10,CGAAACCA,0.176
11,AACATTAC,0.0514
12,CAATAGGA,-0.0819
13,CGAACCCG,0.0694
14,ACAAACGC,-0.0115
15,ACGCCGAA,-0.204
16,CTCATATA,-0.0108
17,CGCATCCC,-0.134
18,GTTAAGTA,0.159
19,AATATCGA,0.0312
20,CGCCGGTA,0.0825
21,CACGGGAG,-0.246
22,CAGCCGAA,-0.23
23,ACGGGCCT,-0.0832
24,GATCCGGC,-0.159
25,AAACTATT,0.0503

row,Sequence,PBM E-score
1,CGCGAAAC,0.0458
2,AGCGCAGA,-0.0767
3,CGTACGTA,-0.0468
4,GCATTCCA,-0.161
5,ATGGTGAA,-0.0722
6,AAAACTAA,0.231
7,CTGATGCA,-0.119
8,ATGAATCC,-0.0638
9,ATCTTTAG,0.128
10,CCGATGAC,-0.019
11,TATACGCA,-0.0608
12,CCACTCGG,-0.104
13,AGTCGCGC,0.0514
14,ACAGCGAT,-0.135
15,CGTCCTGC,-0.341
16,CGATGACC,0.305
17,ACCAATTC,0.00864
18,CGGCTCCA,-0.176
19,CAAACAGA,0.108
20,ATTCCGCC,-0.128
21,CATGTTGC,-0.148
22,CCAGTGCG,-0.279
23,ATCTAGGA,-0.0827
24,ATGATAAG,0.135
25,AATAAGGT,0.128

row,Sequence,PBM E-score
1,ACAAGCGT,-0.161
2,CCAACCCA,-0.0486
3,ATTCAGGC,-0.084
4,CCACGGTC,-0.0824
5,ACGACCAT,-0.154
6,AAAGGCGA,-0.218
7,GGCGCTAC,-0.159
8,ACACGGTG,-0.121
9,CGGATCGA,-0.196
10,GTGCATCA,-0.11
11,AGAGCGTC,-0.146
12,GGCAGCTA,-0.0584
13,AGGTCAAT,0.167
14,CAGCCAAC,0.0499
15,CTATATAA,0.24
16,AGCGGTAT,0.156
17,CAGAACTG,0.116
18,AATATTCT,0.0276
19,CGGACCCA,0.195
20,AAGGCAGG,-0.288
21,AACGTGAG,-0.0273
22,ACTGTACA,-0.149
23,TAAAAAAA,0.223
24,GGTTGAGA,0.0557
25,TATCTGGA,-0.169

row,Sequence,PBM E-score
1,ACTTCTAC,-0.118
2,AGCGTGTC,-0.204
3,CGCCGACA,-0.193
4,CACGCCGC,-0.246
5,ATTCCTAG,0.0113
6,ACGGCTTG,-0.0905
7,CGGTGTGC,-0.172
8,ACACCAAT,0.159
9,ACCAGGAT,0.03
10,CCTCCGGC,0.0186
11,CTATATGA,0.0854
12,TCCTGACA,-0.0691
13,CCTCTACG,0.141
14,GCAGATCA,-0.129
15,AAACCAAC,0.196
16,ATTATAGG,0.062
17,ATCGTATA,0.0132
18,AATTACAC,-0.0381
19,CAAGTGCA,-0.145
20,CAATAAGG,0.0455
21,TAATCAAA,0.105
22,GCAATTAC,0.109
23,AAACCTAT,0.164
24,ATGGCGGC,-0.185
25,ACTGACCA,0.109

row,Sequence,PBM E-score
1,AGGCAACA,-0.122
2,TCGCACAA,0.0215
3,GGGCGGTA,0.0148
4,AGGCGGAA,-0.15
5,ATGTAGGC,-0.212
6,ATACATTG,-0.0183
7,GCGGACTA,-0.057
8,CGAATTAG,0.0338
9,CACCTTCG,-0.0483
10,GGGTATAC,0.281
11,TCGCTGAA,0.14
12,AACGTGCG,-0.101
13,ATAAGTGG,0.066
14,CGCACCAC,-0.0902
15,CTACTTCA,-0.177
16,AAAATCCG,-0.0915
17,ATACTATA,0.197
18,AAAATCGA,0.108
19,GCGTCTGA,-0.0107
20,CTGAGGCA,-0.194
21,CAACTCAA,0.092
22,CGATGCGC,-0.129
23,CGTAAAAG,0.193
24,AACGATAT,0.125
25,CATTGAGC,-0.208

row,Sequence,PBM E-score
1,TAGTCAAA,0.0462
2,TTACGGAA,0.0455
3,CGATCTTA,-0.132
4,CGAAGAGC,-0.0671
5,ACGGTCCT,-0.0875
6,CTTAAGAC,-0.0538
7,ATGCGCTA,-0.119
8,CCGCGTAA,0.0461
9,ATGATGGG,-0.129
10,ACGAGACG,-0.285
11,AAACCCAT,0.253
12,GTTTGCCA,0.00442
13,AGTGCCGG,-0.0913
14,AACCGTGT,0.22
15,ATAGCAAG,-0.0161
16,CACTAAGC,-0.06
17,AGCTTGAT,-0.194
18,GCGTCAAC,-0.182
19,GTTAGTCA,-0.0655
20,ACTGCACC,0.0246
21,CACGCAAG,0.0766
22,CGGGGACA,-0.0979
23,CGATCTCC,-0.244
24,TTTAGAAA,0.105
25,CGGTTTAC,-0.028

row,Sequence,PBM E-score
1,GCTCTATA,-0.126
2,AGTCCTGA,-0.0542
3,AATGGACT,-0.0512
4,CTGACTGA,-0.217
5,AAAGTGGG,0.00103
6,AATTATAT,0.19
7,CGCGCGAG,0.107
8,AGAACAAA,0.257
9,CAGCTAGC,-0.206
10,AATGGGAT,-0.225
11,CACGAGAG,-0.137
12,GACCTGAA,0.132
13,TCAGCTAA,0.0829
14,CTAATCTC,-0.108
15,CGCATGTC,-0.173
16,GATACATA,-0.0042
17,CGGAACCG,0.169
18,CCTTCCCC,-0.21
19,CGTAACCA,0.441
20,ACACCAGA,0.0396
21,AAACGTTA,0.00407
22,CCAAGGGC,0.0008
